# Data taken from patent US20110065754A1 (priority 2009, published 2011).
# Conditions: in vitro, previously tested
structure (smiles),measurement,value
"[N-]=[N+]=Nc1ccc(NCCCCCCN2C[C@H](O)[C@@H](O)[C@H](O)[C@H]2CO)c([N+](=O)[O-])c1 [NAP-DNJ, N—(N-{4′-azido-2′-nitrophenyl}-6-aminohexyl)deoxynojirimycin]",CC50,125 to 250 µM
